Reference: ChEMBL document CHEMBL5724801, “EUbOPEN Chemogenomics Library - Multiplex” (2024)

How the values were obtained:
Format in all cases: toxicity, cell-based
HEK-293T = assay: Multiplex assay against HEK293T; conditions: human
Summary of the method: (§1)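 Four dyes were applied at seeding to live cells: Hoechst33342, BioTracker Green Microtubule Cytoskeleton Dye, MitoTracker Red and Annexin V Alexa Fluor 680. Imaging after compound addition used a CQ1 microscope at 37°C and 5% CO2. CellPathfinder machine-learning gating then sorted cells into Hoechst high-intensity objects or normal cells, normal cells into healthy, pyknosed or fragmented nuclei, and pyknosed cells into mitotic or apoptotic, with tubulin, mitochondrial-mass and membrane-permeability phenotypes given as per cents of healthy-nucleus cells.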

U2OS = assay: Multiplex assay against U2OS; conditions: human; summary of the method: as §1
Fibroblast = assay: Multiplex assay against human fibroblast; summary of the method: as §1
[1] = 12 h, 1 µM, compound concentration 1 uM
[2] = 12 h, 10 µM, compound concentration 10 uM
[3] = 24 h, 1 µM, compound concentration 1 uM
[4] = 24 h, 10 µM, compound concentration 10 uM
[5] = 48 h, 1 µM, compound concentration 1 uM
[6] = 48 h, 10 µM, compound concentration 10 uM

Structure (SMILES)	Population Healthy Nuclei (%) (HEK-293T; [1])	Population Mitochondria Different-Phenotype (%) (HEK-293T; [1])	Population Tubulin-Different-Phenotype (%) (HEK-293T; [1])	Population Healthy Nuclei (%) (HEK-293T; [2])	Population Tubulin-Different-Phenotype (%) (HEK-293T; [2])	Population Pyknosed Nuclei (%) (HEK-293T; [3])	Total Cell Count (HEK-293T; [3])	Population Pyknosed Nuclei (%) (HEK-293T; [5])	Population Tubulin-Different-Phenotype (%) (HEK-293T; [5])	Total Cell Count (HEK-293T; [5])	Population Tubulin-Different-Phenotype (%) (HEK-293T; [6])	Total Cell Count (HEK-293T; [6])	Population Mitochondria Different-Phenotype (%) (U2OS; [2])	Population Mitochondria Different-Phenotype (%) (U2OS; [4])	Total Cell Count (U2OS; [5])	Population Mitochondria Different-Phenotype (%) (U2OS; [6])	Population Apoptotic (%) (Fibroblast; [5])	Total Cell Count (U2OS; [1])	Total Cell Count (U2OS; [3])	Population Mitochondria Different-Phenotype (%) (Fibroblast; [5])	further results
COc1cc(N2CCN(C)CC2)ccc1Nc1nccc(-c2cn(C)c3cnccc23)n1	64.98% and 11.01%	25.53% and 0%	10.64% and 33.33%	78.66% and 25.56%	8.5% and 44.12%	16.82% and 64.84%	648 and 128	11.85% and 38.36%	1.68% and 31.52%	1115 and 160	0.48% and 69.7%	480 and 133	10.8% and 72.92%	7.65% and 67.65%	803 and 245	5.56% and 45%	0% and 33.33%	–	–	–	Total Cell Count (HEK-293T; [1]): 434 and 109; Population Mitochondria Different-Phenotype (%) (HEK-293T; [2]): 29.15% and 8.82%; Population Pyknosed Nuclei (%) (HEK-293T; [2]): 19.75% and 69.92%; Population Pyknosed Nuclei (%) (HEK-293T; [4]): 10.28% and 49.17%; Population Mitochondria Different-Phenotype (%) (U2OS; [1]): 0.6% and 35.96%; Population Mitochondria Different-Phenotype (%) (U2OS; [3]): 0.5% and 42.96%; Population Mitochondria Different-Phenotype (%) (U2OS; [5]): 0.14% and 23.78%; Population Healthy Nuclei (%) (U2OS; [6]): 54.25% and 15.04%; Population Mitotic Cells (%) (U2OS; [6]): 17.27% and 4.35%; Population Fragmented Nuclei (%) (Fibroblast; [2]): 16.67% and 1.17%; Population Fragmented Nuclei (%) (Fibroblast; [4]): 17.01% and 2.69%; Population Apoptotic (%) (Fibroblast; [6]): 33.33% and 10%
CCCCCN1C(=O)C2(COc3cc4c(cc32)OCO4)c2ccccc21 (stereo not given)	57.84% and 16%	35.59% and 8.33%	6.21% and 29.17%	42.32% and 10.97%	8.15% and 47.06%	18.73% and 60.2%	–	–	1.42% and 21.37%	1196 and 310	2.45% and 37.9%	862 and 216	0.28% and 23.39%	0.66% and 21.32%	1207 and 356	0.24% and 13.48%	7.69% and 35.71%	471 and 156	633 and 205	17.98% and 4.02%	Population Healthy Nuclei (%) (HEK-293T; [4]): 66.52% and 19.3%; Population Apoptotic (%) (HEK-293T; [6]): 6.8% and 24.44%; Total Cell Count (U2OS; [4]): 526 and 166; Total Cell Count (U2OS; [6]): 950 and 272; Population Apoptotic (%) (Fibroblast; [2]): 2.99% and 14.55%
CCCn1c(=O)c2[nH]c(C3CCCC3)nc2n(CCC)c1=O [1,3-DIPROPYL-8-CYCLOPENTYLXANTHINE [DPCPX]]	–	–	–	–	–	–	–	–	–	–	–	–	–	–	–	–	–	–	–	1% and 12%	Population Hoechst High Intensity Objects (%) (HEK-293T; [2]): 5% and 18%; Population Hoechst High Intensity Objects (%) (HEK-293T; [4]): 4% and 15%; Population Mitotic Cells (%) (U2OS; [2]): 31% and 0%; Population Apoptotic (%) (Fibroblast; [4]): 63% and 20%; Population Membrane Permeable-Phenotype (%) (Fibroblast; [6]): 1% and 16%
CC(C)(C)c1cc(C(C)(C)C)c(NC(=O)c2c[nH]c3ccccc3c2=O)cc1O [IVACAFTOR]	–	–	2.94% and 20%	49.64% and 12.26%	1.46% and 31.58%	21% and 65.07%	519 and 146	8.39% and 43.5%	0.62% and 44.44%	1267 and 178	0.62% and 32.1%	762 and 178	0.4% and 28.83%	1.36% and 41.82%	–	1.49% and 32.58%	25% and 5.88%	–	–	20% and 4.79%	Population Healthy Nuclei (%) (HEK-293T; [4]): 67.04% and 17.11%; Population Mitochondria Different-Phenotype (%) (HEK-293T; [4]): 37.6% and 11.54%; Population Mitochondria Different-Phenotype (%) (HEK-293T; [5]): 11.04% and 34.34%; Population Pyknosed Nuclei (%) (HEK-293T; [6]): 12.88% and 49.71%; Population Membrane Permeable-Phenotype (%) (U2OS; [4]): 5.1% and 20%; Population Fragmented Nuclei (%) (U2OS; [6]): 2.6% and 13.13%; Population Fragmented Nuclei (%) (Fibroblast; [1]): 15.03% and 5%; Population Mitochondria Different-Phenotype (%) (Fibroblast; [1]): 17.39% and 4.44%
CCC(=N\O)/C(C)=C/c1ccc(F)cc1 [A-079]	65.15% and 19.13%	–	3.7% and 37.14%	55.56% and 15.08%	7.69% and 26.32%	15.15% and 56.84%	581 and 190	–	0.84% and 15.85%	1541 and 339	1.85% and 29.49%	1072 and 157	–	–	1176 and 335	–	–	469 and 137	637 and 187	14.42% and 1.74%	Population Mitochondria Different-Phenotype (%) (HEK-293T; [2]): 34.87% and 5.26%; Population Tubulin-Different-Phenotype (%) (HEK-293T; [4]): 13.78% and 2.86%; Total Cell Count (HEK-293T; [4]): 544 and 177; Population Pyknosed Nuclei (%) (HEK-293T; [6]): 11.38% and 49.36%; Total Cell Count (U2OS; [4]): 489 and 158; Total Cell Count (U2OS; [6]): 1023 and 273; Population Tubulin-Different-Phenotype (%) (Fibroblast; [5]): 4.65% and 16.86%; Population Mitochondria Different-Phenotype (%) (Fibroblast; [6]): 16.38% and 1.43%
Cc1ccc(-c2c(C(=O)CF)n(CCCO)c3ncnc(N)c23)cc1	58.84% and 12.24%	36.42% and 5.56%	5.2% and 22.22%	52.68% and 11.85%	–	22.13% and 74.38%	–	9.92% and 40.21%	1.66% and 42.34%	1301 and 194	1.9% and 38.02%	1026 and 199	–	–	975 and 220	–	–	387 and 104	516 and 134	18.85% and 3.11%	Population Healthy Nuclei (%) (HEK-293T; [3]): 74.47% and 23.12%; Population Mitochondria Different-Phenotype (%) (HEK-293T; [4]): 32.23% and 10.53%; Population Apoptotic (%) (HEK-293T; [5]): 2.33% and 16.67%; Population Pyknosed Nuclei (%) (HEK-293T; [6]): 9.36% and 36.68%; Population Fragmented Nuclei (%) (Fibroblast; [3]): 17.18% and 2.33%; Population Fragmented Nuclei (%) (Fibroblast; [5]): 17.96% and 2.78%
CN(C)C(=O)Cn1cc(-c2ccc(-c3cncc4ccccc34)cc2)cn1	–	–	–	–	–	–	–	–	–	–	–	–	–	–	–	–	–	–	–	–	Population Hoechst High Intensity Objects (%) (HEK-293T; [2]): 6% and 19%; Population Mitotic Cells (%) (U2OS; [2]): 33% and 0%; Population Mitotic Cells (%) (U2OS; [6]): 25% and 7%; Population Fragmented Nuclei (%) (Fibroblast; [1]): 10% and 33%; Population Fragmented Nuclei (%) (Fibroblast; [2]): 13% and 40%; Population Membrane Permeable-Phenotype (%) (Fibroblast; [2]): 1% and 18%; Population Fragmented Nuclei (%) (Fibroblast; [3]): 12% and 40%; Population Apoptotic (%) (Fibroblast; [6]): 72% and 12%; Population Mitotic Cells (%) (Fibroblast; [6]): 27% and 87%
Cc1nc2ccc(Oc3ccc(F)cc3)cc2c(=O)n1C[C@H]1CCCN(C(C)C)C1.Cl	–	–	–	–	–	–	–	–	–	–	–	–	–	–	–	–	–	–	–	2% and 13%	Population Hoechst High Intensity Objects (%) (HEK-293T; [1]): 6% and 27%; Population Hoechst High Intensity Objects (%) (HEK-293T; [3]): 4% and 22%; Total Cell Count (U2OS; [2]): 268 and 86; Total Cell Count (U2OS; [4]): 297 and 91; Total Cell Count (U2OS; [6]): 380 and 103; Population Membrane Permeable-Phenotype (%) (Fibroblast; [1]): 1% and 21%; Population Membrane Permeable-Phenotype (%) (Fibroblast; [3]): 1% and 19%

Some entries of the source have several records that differ or are many. They are shown here; other results are not. An entry can have further records. Values that stand side by side are repeats across runs, samples, wells, individuals or studies.
